# Counter-ions that a name gives are not always drawn. In all, about 1,500 compounds went through this assay and about 30 (2%) showed activity.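 How the source made its calls: active = robust z-score below -2; a few such results were not called.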 The list shows a part of the results.
# Test system: optoTopBP1 Flp-In 293 T-REx (HEK293) cells
# Assay: light-induced TopBP1 condensate (nuclear foci) count, plate-normalised robust z-score vs non-control wells; higher = more TopBP1 condensates (negative = condensation inhibitor), active = hit call of the paper
# Settings: 10 µM; incubation time 2 h
row,Compound,light-induced TopBP1 condensate (z-score)
1,COc1ccccc1OCCNCC(O)COc1cccc2[nH]c3ccccc3c12 (stereo not drawn) [Carvedilol],inactive: -0.978
2,CC(C)c1nc(CN(C)C(=O)N[C@H](C(=O)N[C@@H](Cc2ccccc2)C[C@H](O)[C@H](Cc2ccccc2)NC(=O)OCc2cncs2)C(C)C)cs1 [Ritonavir],inactive: -1.47
3,CC1CCc2cc(F)cc3c(=O)c(C(=O)O)cn1c23 (stereo not drawn) [Flumequine],inactive: 0.294
4,CCCCOc1ccc(OCCCN2CCOCC2)cc1 [Pramoxine hydrochloride],inactive: -0.268
5,COC(=O)Nc1nc2cc(C(=O)c3ccc(F)cc3)ccc2[nH]1 [Flubendazol],active: -2.01
6,CC(C)(C)NC(=O)[C@@H]1CN(Cc2cccnc2)CCN1C[C@@H](O)C[C@@H](Cc1ccccc1)C(=O)N[C@H]1c2ccccc2C[C@H]1O [Indinavir sulfate],inactive: -0.338
7,O=C(O[C@@H]1C[C@@H]2C[C@H]3C[C@H](C1)N2CC3=O)c1c[nH]c2ccccc12 [Dolasetron mesilate],inactive: -0.474
8,COc1ccc2cc1Oc1ccc(cc1)C[C@H]1c3c(cc4c(c3Oc3cc5c(cc3OC)CCN(C)[C@@H]5C2)OCO4)CCN1C [Cepharanthine],inactive: 0.371
9,Cc1c(OCC(F)(F)F)ccnc1C[S+]([O-])c1nc2ccccc2[nH]1 (stereo not drawn) [Lansoprazole],inactive: 0.561
10,Cn1c(=O)c2c(ncn2C)n(C)c1=O [Caffeine],inactive: 0.602
11,CN[C@@H]1CCc2[nH]c3ccc(C(N)=O)cc3c2C1 [Frovatriptan succinate],inactive: -0.247
12,CCCC(CCC)C(=O)O [Valproic acid],inactive: 0.428
13,CN(C)CCCC1(c2ccc(F)cc2)OCc2cc(C#N)ccc21 (stereo not drawn) [Citalopram Hydrobromide],inactive: 0.761
14,O=C(O)CNC(=O)C(CS)Cc1ccccc1 (stereo not drawn) [Thiorphan],inactive: -0.677
15,Cc1onc(-c2ccccc2)c1C(=O)N[C@@H]1C(=O)N2[C@@H]1SC(C)(C)[C@@H]2C(=O)O [Oxacillin sodium],inactive: 0.606
16,COc1cc(N)c(Cl)cc1C(=O)NC1CCN(CCCOc2ccc(F)cc2)CC1OC (stereo not drawn) [Cisapride],inactive: 0.452
17,CN(C)CCC(c1ccc(Cl)cc1)c1ccccn1 (stereo not drawn) [Chlorpheniramine maleate],inactive: 1.09
18,COC1=CC(=O)C[C@@H](C)[C@]12Oc1c(Cl)c(OC)cc(OC)c1C2=O [Griseofulvin],inactive: -0.0214
19,NCCc1cc[nH]n1 [Betazole hydrochloride],inactive: 0.0766
20,CCCNC(C)C(=O)Nc1c(C)csc1C(=O)OC (stereo not drawn) [Articaine hydrochloride],inactive: 1.26
21,COc1cccc(N(C)C(=S)Oc2ccc3c(c2)CCCC3)n1 [Liranaftate],inactive: 0.351
22,Cc1c(NC(C)C)c(=O)n(-c2ccccc2)n1C [Isopyrin hydrochloride],inactive: 0.627
23,CC(C[N+](C)(C)C)OC(N)=O (stereo not drawn) [Bethanechol chloride],inactive: -0.101

row,Compound,light-induced TopBP1 condensate (z-score)
1,COc1ccc2c(c1)C(=O)N(CCc1ccc(S(=O)(=O)NC(=O)NC3CCCCC3)cc1)C(=O)C2(C)C [Gliquidone],inactive: -0.0398
2,CN(C)CCN(Cc1ccc(Cl)cc1)c1ccccn1 [Chloropyramine hydrochloride],inactive: -0.941
3,NS(=O)(=O)Cc1noc2ccccc12 [Zonisamide],inactive: 0.198
4,"Cc1cn([C@H]2C[C@H](N=[N+]=[N-])[C@@H](CO)O2)c(=O)[nH]c1=O [Zidovudine, AZT]",inactive: 0.554
5,COc1ccc([C@@H]2Sc3ccccc3N(CCN(C)C)C(=O)[C@@H]2OC(C)=O)cc1 [Diltiazem hydrochloride],inactive: 0.563
6,Cc1ccc(C)c(OCCCC(C)(C)C(=O)O)c1 [Gemfibrozil],inactive: 0.575
7,O=C(O)C[C@H](O)C[C@H](O)/C=C/c1c(C2CC2)nc2ccccc2c1-c1ccc(F)cc1 [Pitavastatin calcium],inactive: 0.947
8,CNCCC=C1c2ccccc2C=Cc2ccccc21 [Norcyclobenzaprine],inactive: -0.386
9,CC1(C)S[C@@H]2[C@H](NC(=O)[C@H](N)c3ccccc3)C(=O)N2[C@H]1C(=O)OC1OC(=O)c2ccccc21 (stereo partly drawn) [Talampicillin hydrochloride],inactive: -0.173
10,NC(=O)OCC(O)COc1ccc(Cl)cc1 (stereo not drawn) [Chlorphensin carbamate],inactive: -0.00104
11,COC(=O)CCc1ccc(OCC(O)CNC(C)C)cc1 (stereo not drawn) [Esmolol hydrochloride],inactive: -0.544
12,CN1C(C(=O)Nc2ccccn2)=C(O)c2ccccc2S1(=O)=O [Piroxicam],inactive: 0.766
13,COCCOC(=O)C1=C(C)NC(C)=C(C(=O)OC(C)C)C1c1cccc([N+](=O)[O-])c1 (stereo not drawn) [Nimodipine],inactive: -0.998
14,C[C@]12CCC(=O)C=C1C=C[C@@H]1[C@@H]2CC[C@@]2(C)[C@H]1CC[C@@]21CCC(=O)O1 [Canrenone],inactive: 0.252
15,CC(C)NC(=N)NC(=N)Nc1ccc(Cl)cc1 [Proguanil hydrochloride],inactive: -0.256
16,COc1ccc2c3c1O[C@H]1C[C@@H](O)C=C[C@@]31CCN(C)C2 [Galanthamine hydrobromide],inactive: -1.02
17,Cc1cc(C#N)cc(C)c1Oc1nc(Nc2ccc(C#N)cc2)nc(N)c1Br [Etravirine],inactive: 0.362
18,Cc1nnc(SCC2=C(C(=O)O)N3C(=O)[C@@H](NC(=O)Cn4cnnn4)[C@H]3SC2)s1 [Cefazolin sodium salt],inactive: 0.18
19,O=c1[nH]c(=O)n([C@H]2C[C@H](O)[C@@H](CO)O2)cc1C(F)(F)F [Trifluridine],inactive: -0.311
20,CC(=O)CC(c1ccc([N+](=O)[O-])cc1)c1c(O)c2ccccc2oc1=O (stereo not drawn) [Acenocoumarol],inactive: 0.421
21,CCCCCCCCNC(C)C(O)c1ccc(SC(C)C)cc1 (stereo not drawn) [Suloctidil],inactive: -0.0851
22,S=c1[nH]cnc2nc[nH]c12 [Mercaptopurine],inactive: -0.664
23,CN(Cc1ccc(C(C)(C)C)cc1)Cc1cccc2ccccc12 [Butenafine Hydrochloride],inactive: -0.115

row,Compound,light-induced TopBP1 condensate (z-score)
1,CC1(C)O[C@@H]2[C@@H](CO[C@@]3(COS(N)(=O)=O)OC(C)(C)O[C@@H]23)O1 [Topiramate],inactive: 0.873
2,CC[N+](CC)(CC(=O)Nc1c(C)cccc1C)Cc1ccccc1 [Denatonium benzoate],inactive: 0.105
3,COc1cc(NS(=O)(=O)c2ccc(N)cc2)nc(OC)n1 [Sulfadimethoxine],inactive: 0.224
4,CN(C)c1cc(NC(=O)CNC(C)(C)C)c(O)c2c1C[C@H]1C[C@H]3[C@H](N(C)C)C(O)=C(C(N)=O)C(=O)[C@@]3(O)C(O)=C1C2=O [Tigecycline],inactive: 0.904
5,Cc1cccc(Nc2ccncc2S(=O)(=O)NC(=O)NC(C)C)c1 [Torsemide],inactive: 0.675
6,NC(=O)N1c2ccccc2CC(=O)c2ccccc21 [Oxcarbazepine],inactive: 0.996
7,CC(C)Cn1cnc2c(N)nc3ccccc3c21 [Imiquimod],inactive: -0.358
8,CC(C)(C)NCC(O)COc1cccc2c1CC(O)C(O)C2 (stereo not drawn) [Nadolol],inactive: 1.12
9,CCOCCn1c(N2CCCN(C)CC2)nc2ccccc21 [Emedastine],inactive: -0.971
10,Cc1cccn2c(=O)c(-c3nnn[nH]3)cnc12 [Pemirolast potassium],inactive: 0.448
11,CC[C@H](C)C(=O)O[C@H]1C[C@H](O)C=C2C=C[C@H](C)[C@H](CC[C@@H](O)C[C@@H](O)CC(=O)O)[C@H]21 [Pravastatin],inactive: -0.451
12,CC1=C(C(=O)O)N2C(=O)[C@@H](NC(=O)[C@H](N)c3ccccc3)[C@H]2SC1 [Cephalexin monohydrate],inactive: -0.61
13,Cc1nccn1CC1CCc2c(c3ccccc3n2C)C1=O (stereo not drawn) [Ondansetron Hydrochloride],inactive: 1.05
14,CC(=O)NC[C@H]1CN(c2ccc(N3CCOCC3)c(F)c2)C(=O)O1 [Linezolid],inactive: 0.569
15,COc1ccc2c(c1)c(CC(=O)OCC(=O)O)c(C)n2C(=O)c1ccc(Cl)cc1 [Acemetacin],inactive: -0.239
16,Nc1nnc(-c2cccc(Cl)c2Cl)c(N)n1 [Lamotrigine],inactive: -0.281
17,CC[C@@]1(O)C(=O)OCc2c1cc1n(c2=O)Cc2cc3c(CN(C)C)c(O)ccc3nc2-1 [Topotecan],active: -2.31
18,Nc1nc(=O)[nH]cc1F [Flucytosine],inactive: -0.698
19,Clc1cc(Cl)c(OCC#CI)cc1Cl [Haloprogin],inactive: -0.754
20,Cc1cccc(C)c1NC(=O)CN1CCN(CCCC(c2ccc(F)cc2)c2ccc(F)cc2)CC1 [Lidoflazine],inactive: 0.0471
21,NC[C@H]1O[C@H](O[C@H]2[C@H](O)[C@@H](O[C@H]3O[C@H](CO)[C@@H](O)[C@H](N)[C@H]3O)[C@H](N)C[C@@H]2N)[C@H](N)[C@@H](O)[C@@H]1O [Kanamycin B],inactive: -0.663
22,CC(=O)O[C@]1(C(C)=O)CC[C@H]2[C@@H]3C=C(C)C4=CC(=O)CC[C@]4(C)[C@H]3CC[C@@]21C [Megestrol acetate],inactive: -1.02
